Source: the supplement of paper PMC12632987
Over roughly 4,500 sequences, “median log2 fold change of GCK-ALFA target abundance (FLAG IP / Myc IP barcode read proportion)” has its median near 0.078; the lowest 2% begin near -0.6. The list shows a part of the results.

B1: GBRAP_160_4421 (protein)
chain: METIKEVEEILDETTELVVELIKEGEREEAIAALRVGKGEILLLLDEDESVSEETREKVDEVLDETIEKLEENKDFTPEEVKELLEEAKKKIIEILKEGS
B2: GBRAP_125_2965 (protein)
chain: SEEEALEALAIIAKALGFDEDEVEEAVELARRFGLKKTLIALFLAEGYEEVADLVEKLTEEEAREVAKKLAEEIKKNPELTPEEVVELAKKLFEEVIAKK
B3: GBRAP_139_3710 (protein)
chain: TPPEELVEEAKKIVEENKDNIDLLAKKIAELISKADPETALKIARAAAEKLKDFSWEEWEKLIDLVSEELKKLGMEEDDVLAIEGEMEAVFAEQELKKLE
B4: GBRAP_78_6611 (protein)
chain: ETKEKILKLLEEAEELAREVRKLAPEVAEQAAELEVLLGTAIYMVDTGSESKEEILETLEEAEKAAKELKKLVEGLAEEVQKLVKEALEKIKEAIKLLKE
B5: GBRAP_160_4040 (protein)
chain: KEKYEKLEKFAKEVFEEAKKLIEGQTVEQAAVVFSVAMGQIILKAEELGIDDEELHEKIKKLEDEGVEYLLKNPELTEEEIKELIEKAEKEILKAIEEAK
B6: GBRAP_128_3229 (protein)
chain: MSPELRARVQALIDTIINGDVAETRAATRELVALMATVSDEEAEEIAEALIAAIPQLTAEKLDAVADALRENAGRLSPEKAALAYDVAIAALEQAEELEE
B7: GBRAP_125_3063 (protein)
chain: AKEAAIENLELIARALGLSEDDIAELRRLAEAGSIKNTLIAIALAEGREDLADAIEKLTEEEAEAVLAELAAELEANPELTPEEVLERLLALAEAALAAR
B8: GBRAP_78_6734 (protein)
chain: EVEEELEKAIELLDEAIKLAIGKVSNEVIAELVEALSDVIEALELLEEGGEKEEILKEIEEAIKHLEEALKLLPEEEKEIRKLVEKAKEKLEKALKEVKK
B9: GBRAP_166_4914 (protein)
chain: SMEELVEEAKERIEKLVKEMPKLDEEGKIEALIEIAEIIRELKEAGASEEEINEVIRFLAEKLKEEGLDVRHYLAIVAAAAEFDEEEMDKIDKIVEEVLK
B10: GBRAP_128_3536 (protein)
chain: SLEEVRARAAAVMDAIKAATVEEAYAIMKAFLEELKGLSLEEVEAAMDVLEERLPELTAEKLEAIADAMDEERPKLSPEKQRLVADLQVEALNLAEEKEE
B11: GBRAP_160_4636 (protein)
chain: SPAAEDLIAIVDEYTAIILEEIDAGDIDGALAALRMMVGDLVLAAEESPEFSEEDVEELDRLGREHVERFEANRDASKEELKALVEEGAEELKRLIKEKA
B12: GBRAP_137_3613 (protein)
chain: KKITITFSEEDGTAFATIKADKSVDHEKLEELVLKVAEETGAKVVIAYSDEEDELEIDLVGDRETIVKAVKLLVKRLKEELGAEVILESEGAEDLVEAVK
B13: GBRAP_128_3334 (protein)
chain: MDEERVAEIERLARAIIEADAEEARRLAEEIAERLVELSLEEVRAAVERLLELLPELSAEHLDILADVLREHLPRFEPEKANEVADLQVEALNLSVELEE
B14: GBRAP_160_4189 (protein)
chain: SEEVEKLIEEIKEIAEEAIEMIEGETYEQRLVIVEGMFGQIIMLLMSSEAVSDEAEEKVAEVADEAVEYLRENPDLTEEEIKELIKETTEKIIEIIKELS
B15: GBRAP_160_4060 (protein)
chain: SESKERLLELVDEAKEEILDVLDEEGAEAAIVMAAGEYGAVIMEAAEDEDASDELVDELAKVRDELVKELKENKDASKEELKKIIEKHAEEAKKIIKKHY
B16: GBRAP_117_2565 (protein)
chain: SAEDKEFEERVKELVEKAKELIRKRKEAPPEEQPKLEKELEELIREETRELIEKHGEEKTEEALEEALLSLDAEEYFEIELRREEAFAEIREEREREEAA
B17: GBRAP_11_2911 (protein)
chain: KKELLKKLAELLEELVEKLKELLEEGVDNEELLEEALELAEEALKLAEEALDEADVELAKELVELLKKAKEDPENAEQYVKEALATARVLLGQVLLAIEE
B18: GBRAP_26_5436 (protein)
chain: IEEVVRESIKRIEEVAKKIGDPEKAAAALAEAITLLEEFVETAEEENLSEEEMEKLAEEKVKELREFLEDLGLSEELIEELVKTFREELKKIKEELLKKR
B19: GBRAP_160_4540 (protein)
chain: SEKVEELKELIDEETEFVKSLVDEVSTEELINIFKTEFGAVIMEGEELGILTDELEEKLDEIAEKLVKWLKENPNASPEEKKKAIEKAAEEMKKAIEEEG

Target: GABARAP, O95166
Sequence (O95166 whole entry, the tested form may be a part): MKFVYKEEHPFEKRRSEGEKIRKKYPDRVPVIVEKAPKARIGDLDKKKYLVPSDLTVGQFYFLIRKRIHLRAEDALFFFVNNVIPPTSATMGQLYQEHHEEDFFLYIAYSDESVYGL
Experiment: median log2 fold change of GCK-ALFA target abundance (FLAG IP / Myc IP barcode read proportion) (log2 ratio); each designed protein is fused to an ALFA-tag nanobody in HEK293 cells to bring the named protein to FLAG-tagged glucokinase (GCK); Myc marks an untargeted standard; higher = target protein stabilised (more abundant)
Conditions: target protein: 3xFLAG-MCP-GCK-ALFA reporter; HEK293 landing pad (RPLP)
How it was run: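 An ALFA-nanobody-fused binder library was recombined into HEK293 landing-pad cells and induced with 2 μg mL^−1 doxycycline. Cells were transfected with a plasmid expressing a FLAG-tagged target and a Myc-tagged standard. After 48 h, lysates underwent anti-FLAG and anti-Myc immunoprecipitation, and circular RNA barcodes were reverse transcribed, amplified and sequenced. Target abundance is the per-binder median log2 ratio of FLAG to Myc barcode read proportions. Barcodes needed ≥10^−7 proportion in both replicates, binders ≥3 barcodes per replicate, and a 10^−6 pseudocount was added; the two replicates were pooled.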

Binder	median log2 fold change
B1	0.268
B2	-0.872
B3	-0.507
B4	0.172
B5	-0.0275
B6	0.114
B7	0.13
B8	0.166
B9	0.253
B10	0.228
B11	-0.0391
B12	-0.43
B13	0.0816
B14	-0.225
B15	0.293
B16	0.581
B17	0.062
B18	0.332
B19	-0.0975
